In publication PMC4336329 (PLoS ONE, 2015):
Out of some 310,000 compounds screened, about 14,000 (4.5%) showed an effect of 50% or more. Effects have a minus sign here. This is one part of the list.

Target: human ether-à-go-go-related gene (hERG) potassium channel (human, UniProt Q12809)
Test: primary screen, population patch clamp on CHO cells stably expressing hERG
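Also: peak tail current of the secondary pulse compared with the same well before compound.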

Sequence of human ether-à-go-go-related gene (hERG) potassium channel (Q12809 whole entry, looked up): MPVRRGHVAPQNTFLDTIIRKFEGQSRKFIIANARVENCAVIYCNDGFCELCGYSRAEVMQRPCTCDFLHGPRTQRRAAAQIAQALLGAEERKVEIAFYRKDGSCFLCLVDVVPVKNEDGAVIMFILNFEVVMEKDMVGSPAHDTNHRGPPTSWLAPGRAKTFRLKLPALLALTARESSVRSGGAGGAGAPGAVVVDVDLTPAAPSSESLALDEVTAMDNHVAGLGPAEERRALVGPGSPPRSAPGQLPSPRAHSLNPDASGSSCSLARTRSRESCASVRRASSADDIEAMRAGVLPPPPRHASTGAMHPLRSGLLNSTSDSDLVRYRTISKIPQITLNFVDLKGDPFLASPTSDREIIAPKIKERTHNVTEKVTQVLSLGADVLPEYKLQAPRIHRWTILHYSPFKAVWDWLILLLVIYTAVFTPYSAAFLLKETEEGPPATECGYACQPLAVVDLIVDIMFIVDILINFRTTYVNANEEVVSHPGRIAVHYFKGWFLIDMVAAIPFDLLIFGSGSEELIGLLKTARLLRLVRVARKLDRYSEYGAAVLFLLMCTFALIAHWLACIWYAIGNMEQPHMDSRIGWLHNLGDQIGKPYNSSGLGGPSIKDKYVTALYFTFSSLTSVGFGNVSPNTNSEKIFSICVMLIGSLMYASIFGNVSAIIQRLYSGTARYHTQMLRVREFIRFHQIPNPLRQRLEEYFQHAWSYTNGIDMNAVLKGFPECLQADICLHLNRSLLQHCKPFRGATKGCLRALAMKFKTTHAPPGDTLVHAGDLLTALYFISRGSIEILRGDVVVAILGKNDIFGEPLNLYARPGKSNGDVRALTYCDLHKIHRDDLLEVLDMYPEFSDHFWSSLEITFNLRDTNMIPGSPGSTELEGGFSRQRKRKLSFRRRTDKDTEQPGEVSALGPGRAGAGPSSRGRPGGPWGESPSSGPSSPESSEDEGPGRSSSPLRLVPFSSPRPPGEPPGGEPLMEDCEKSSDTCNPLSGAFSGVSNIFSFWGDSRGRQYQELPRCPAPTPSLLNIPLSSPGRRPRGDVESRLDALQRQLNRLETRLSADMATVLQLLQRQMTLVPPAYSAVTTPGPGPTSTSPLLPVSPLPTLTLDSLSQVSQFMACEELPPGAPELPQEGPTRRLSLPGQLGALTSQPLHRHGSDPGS

In order of falling “hERG current change (%, negative = inhibition) at 10uM” value:
1. Cc1cccc(N(C(=O)Cn2nnc(-c3ccccc3F)n2)C(C(=O)NC(C)(C)C)c2ccncc2)c1 (stereo not drawn)  37.7%
2. CC(=O)N1CCN(C(=O)c2cc(=O)c3ccccc3o2)CC1  26.2%
3. O=C1CCC([N+](=O)[O-])C(c2ccc3c(c2)OCO3)N1 (stereo not drawn)  23.9%
4. O=C1C=C(O)c2cccc(O)c2C1=O  22.3%
5. CCOC(=O)C(C#N)=C1CCN(Cc2ccccc2)CC1  22%
6. Cc1ccnc(NC2OC(=O)c3ccccc32)c1 (stereo not drawn)  21.8%
7. CCc1ccccc1N(CC(=O)Nc1cccnc1)S(=O)(=O)c1ccccc1  18.6%
8. O=C(/C=C/c1ccc2c(c1)OCO2)c1c(O)n(CCC2=CCCCC2)c(=O)[nH]c1=O  17.5%
9. Cn1c(SCC(=O)N2CCOCC2)nnc1-c1ccco1  17.3%
10. COc1ccc(Cc2nnc(NC(=O)Cc3cccs3)s2)cc1OC  16.2%
11. O=C(COc1ccc(/C=N/NC(=O)C(=O)N2CCCCC2)cc1)Nc1ccccc1Cl  15.9%
12. O=C(O)c1cc(-c2cccs2)[nH]n1  15.5%
13. O=C(OCCc1ccccc1)c1cc(O)c(O)c(O)c1  15.2%
14. CC(C)CCNC(=O)Cc1csc(-c2ccccc2)n1  14.9%
15. CC1=C(C(=O)Nc2ccccc2)C(c2ccc(C)o2)N2C(=O)CSC2=N1 (stereo not drawn)  13.4%
16. CCc1nnc(NC(=O)CSc2nnc(CNc3ccc(OC)cc3)n2CC)s1  13.1%
17. N#CC1CC(c2ccccc2)=NN1c1ccccc1[N+](=O)[O-] (stereo not drawn)  12.6%
18. CC1(C)CC(=O)c2cnc(NC(=O)CSc3nc4ccccc4o3)nc2C1  12.5%
19. O=C1/C(=C/c2ccc([N+](=O)[O-])cc2)CCC1C1CCCC1 (stereo not drawn)  12.5%
20. O=C(Cn1ccccc1=O)c1cccs1  12.4%
21. CC1(C)Cc2c(sc3nc4n(c(=O)c23)CCC4)CO1  11.2%
22. Cn1c(SCC(N)=O)nnc1C1CCN(C(=O)NCc2ccccc2)CC1  11%
23. Cc1cc(Sc2nnc(N)s2)c2ccccc2n1  10.9%
24. COc1ccc(CCC(=O)O)cc1OC  10.6%
25. CCN(CC)S(=O)(=O)c1ccc(Cl)c(NC(=O)c2cc(Cl)cc(Cl)c2)c1  10.2%
26. Cc1cc(C)n2nc(-c3cccnc3)nc2n1  9.07%
27. COc1ccccc1/C=C/C=N/NC(=O)CC1C(=O)NN=C1C (stereo not drawn)  8.83%
28. Cc1ccc(/C=N/N(Cc2ccccc2)c2ccccc2)o1  8.81%
29. CNc1snc(C)c1C(=O)OCC(=O)N(C)Cc1ccccc1  7.69%
30. COc1cccc(CN(CC(=O)NCC2CCCO2)C(=O)CNS(=O)(=O)c2ccccc2)c1 (stereo not drawn)  7.52%
31. CCOC(=O)C1=C(c2ccccc2)NC(=O)NC1c1cc(OC)c(OC)cc1OC (stereo not drawn)  7.29%
32. COc1ccc(C(=O)NCc2ccc3c(c2)CCO3)cc1  7.15%
33. Cc1cc2cc(CNC(=O)Nc3ccccc3)ccc2n1C  6.94%
34. O=C(CCNC(=O)Cn1cnc2ccccc2c1=O)NCC1COc2ccccc2O1 (stereo not drawn)  6.81%
35. Cc1csc(C(=O)O)c1NC(=O)c1c(Cl)cccc1Cl  6.61%
36. CCOc1ccc(CCNC(=O)COC(=O)c2cc(OC)cc(OC)c2)cc1OCC  6.44%
37. COc1cc(/C=C(\C#N)c2nc3ccccc3s2)ccc1OCC(=O)Nc1ccccc1  6.42%
38. NC(=O)COC(=O)CNC(=O)c1sc2ccccc2c1Cl  5.68%
39. N#CC(C#N)=C1C=CC=CN1/C(=C\c1ccccc1)C(=O)c1cccs1  5.13%
40. CCC(=O)N1CCc2cc(S(=O)(=O)N3CCc4ccccc4C3)ccc21  5.05%
41. Cc1nn(C)cc1/C=N\NC(=O)c1ccc(Cn2cc(Cl)cn2)cc1  4.85%
42. O=C(NCc1cccs1)c1csc2ccccc12  4.73%
43. COCCn1cnc2c1c(=O)n(CC(=O)OCC(=O)NCC(F)(F)F)c(=O)n2Cc1ccccc1  4.6%
44. Cc1ccc(SCCNC(=S)Nc2cc(C)ccc2C)cc1  4.34%
45. COc1ccc(CN(C(=O)/C=C/c2ccco2)C2CCS(=O)(=O)C2)cc1OC (stereo not drawn)  4%
46. O=C(NC1CCCCCC1)C1CCCN(c2ncccn2)C1 (stereo not drawn)  3.96%
47. CS(=O)(=O)c1ccc(S(=O)CC(=O)Oc2ccc(Cl)cc2)c([N+](=O)[O-])c1 (stereo not drawn)  3.87%
48. Cc1ccccc1CNCc1cccnc1  3.68%
49. CC(C)c1ccc(C2N3CCCN23)cc1 (stereo not drawn)  3.32%
50. CCCCn1c(N)c(N(C(=O)CSc2nnnn2-c2ccccc2)C2CCCC2)c(=O)[nH]c1=O  3.15%
51. CN(C(=O)C(C)(C)C)C1c2c(ccc3ccccc23)OCC1CO (stereo not drawn)  2.47%
52. COc1ccc2c(/C=N/NS(=O)(=O)c3ccc(C)cc3)c[nH]c2c1  2.46%
53. Cc1csc2nc(CNS(=O)(=O)c3ccc(-c4ccccc4)cc3)cn12  2.36%
54. CCC(C(=O)Nc1cccnc1Cl)c1ccccc1 (stereo not drawn)  2.22%
55. S=c1[nH]nc(-c2ccccc2)c2ccccc12  1.61%
56. CCc1ccc(OCCOCC(O)CN(CCO)CCO)cc1.Cl (stereo not drawn)  0.477%
57. COc1ccc(CCNC(=O)c2ccc3c(c2)NC(=O)CS3)cc1OC  0.116%
58. Cc1cc(S(=O)(=O)N2CCOCC2)ccc1F  -0.7%
59. O=C(Nc1cccc(Cl)c1)Nc1nc(-c2ccc(Cl)cc2)cs1  -0.913%
60. Cc1nn2c(COc3ccc(NC(=O)c4ccccc4Cl)cc3)nnc2c2ccccc12  -1.12%
61. CCOc1ccccc1OCCC(=O)OCC(=O)Nc1c(C)cc(C)cc1C  -1.42%
62. O=C(O)c1cccc(NS(=O)(=O)c2cccc(C(=O)Nc3ccccc3[N+](=O)[O-])c2)c1  -1.45%
63. Cc1ccc(C)c(N2CCN(C(c3ccncc3)c3nnnn3Cc3ccccc3)CC2)c1.Cl (stereo not drawn)  -3.25%
64. CCOC(=O)c1cc(C#N)c(SCC(=O)c2cc(C#N)c(SC)nc2C)nc1C  -3.38%
65. Cc1cc([N+](=O)[O-])c(C)cc1-c1ccc(/C=N/n2cnnc2)o1  -4.65%
66. Cc1ccc2nsnc2c1NC(=O)CCc1ccccc1  -4.75%
67. O=C(Cc1ccc(F)cc1)Nc1ccccc1N1CCCC1  -4.99%
68. Cc1ccc(NC(=O)c2cc(Cl)ccc2[N+](=O)[O-])cc1C  -5.95%
69. C=CCn1c(SCC(=O)c2[nH]c(C)c(C(C)=O)c2C)nnc1-c1ccncc1  -6.63%
70. Cc1cc(C(=O)Nc2ccc3c(c2)OCO3)cs1  -6.84%
71. CCCCn1c(SCC(=O)Nc2ccc(OC)cc2)nc2ccc(N3CCOCC3)cc2c1=O  -6.99%
72. COC(=O)c1cc(OC)c(OC)cc1NC(=O)CSc1nnc(-c2cccnc2)n1C  -7.74%
73. Cc1ccc(Cn2nnc3c(=O)[nH]c(C4CCN(S(=O)(=O)c5ccc(S(=O)(=O)NC6CC6)cc5)CC4)nc32)cc1  -8.02%
74. Cn1c(SCC(=O)c2ccccc2)nnc1-c1ccc(O)cc1  -11.2%
75. CCN(CC)c1ccc(/C=N\NC(N)=O)cc1  -11.7%
76. CCC(C)(C)NC(=O)C(c1ccc(F)cc1)N(Cc1ccco1)C(=O)CCC(=O)Nc1ccccn1 (stereo not drawn)  -13.7%
77. CCCC(c1nnnn1CC1CCCO1)N1CCN(c2nc3ccccc3s2)CC1 (stereo not drawn)  -16.6%
78. Cc1ccc(CNC(=O)CCS(=O)(=O)c2cc(Br)cc3c2N(C(=O)C2CC2)CC3)o1  -16.7%
79. CCOC(=O)c1nc(C)n(-c2cc(Cl)cc(Cl)c2)n1  -17.5%
80. O=c1[nH]c(CSc2nc3ccccc3[nH]2)nc2c1cnn2-c1ccccc1  -17.6%
81. COc1ccc(NC(=S)N2CCN(C/C=C/c3ccccc3)CC2)cc1  -24.1%
82. COCCNCCCOc1ccc(Br)cc1Cl.O=C(O)C(=O)O  -31.8%
83. CCCC[C@@H]1CNC(=O)C(=O)N1CCc1cc(C(F)(F)F)cc(C(F)(F)F)c1  -38.8%
84. COc1cccc(O)c1CN1CCCC(C(=O)c2sccc2C)C1 (stereo not drawn)  -45.9%
85. CCc1ccccc1NC(=O)CN1CCN(CC(=O)NCc2ccc(Cl)cc2)CC1  -46.6%
86. Cl.O=C(NCCN1CCCC1)c1cccc(Cl)c1  -51.6%
87. CC(=O)NCCn1c(SCC(=O)OCc2ccccc2)nc2ccccc2c1=O  -60.2%
88. O=C(COC(=O)[C@@H]1CCCN1S(=O)(=O)c1ccccc1F)Nc1ccc(OC(F)F)cc1  -61.7%
89. Cc1cc2oc(=O)cc(CN3CCN(C/C=C/c4ccccc4)CC3)c2cc1O  -80.9%
90. Cl.N=c1n(CCN2CCCCC2)c2ccccc2n1CC(O)c1ccc(Cl)c(Cl)c1 (stereo not drawn)  -105%
